# Data from article PMC4336329 (PLoS ONE, 2015).
# Out of some 310,000 compounds screened, about 14,000 (4.5%) showed an effect of 50% or more. Effects have a minus sign here. Some of the results follow.
# Molecular target: human ether-à-go-go-related gene (hERG) potassium channel (human, UniProt Q12809)
# Assay: primary screen, population patch clamp on CHO cells stably expressing hERG
# 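Further: peak tail current of the secondary pulse compared with the same well before compound.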
# Chain of human ether-à-go-go-related gene (hERG) potassium channel (Q12809 whole entry, looked up): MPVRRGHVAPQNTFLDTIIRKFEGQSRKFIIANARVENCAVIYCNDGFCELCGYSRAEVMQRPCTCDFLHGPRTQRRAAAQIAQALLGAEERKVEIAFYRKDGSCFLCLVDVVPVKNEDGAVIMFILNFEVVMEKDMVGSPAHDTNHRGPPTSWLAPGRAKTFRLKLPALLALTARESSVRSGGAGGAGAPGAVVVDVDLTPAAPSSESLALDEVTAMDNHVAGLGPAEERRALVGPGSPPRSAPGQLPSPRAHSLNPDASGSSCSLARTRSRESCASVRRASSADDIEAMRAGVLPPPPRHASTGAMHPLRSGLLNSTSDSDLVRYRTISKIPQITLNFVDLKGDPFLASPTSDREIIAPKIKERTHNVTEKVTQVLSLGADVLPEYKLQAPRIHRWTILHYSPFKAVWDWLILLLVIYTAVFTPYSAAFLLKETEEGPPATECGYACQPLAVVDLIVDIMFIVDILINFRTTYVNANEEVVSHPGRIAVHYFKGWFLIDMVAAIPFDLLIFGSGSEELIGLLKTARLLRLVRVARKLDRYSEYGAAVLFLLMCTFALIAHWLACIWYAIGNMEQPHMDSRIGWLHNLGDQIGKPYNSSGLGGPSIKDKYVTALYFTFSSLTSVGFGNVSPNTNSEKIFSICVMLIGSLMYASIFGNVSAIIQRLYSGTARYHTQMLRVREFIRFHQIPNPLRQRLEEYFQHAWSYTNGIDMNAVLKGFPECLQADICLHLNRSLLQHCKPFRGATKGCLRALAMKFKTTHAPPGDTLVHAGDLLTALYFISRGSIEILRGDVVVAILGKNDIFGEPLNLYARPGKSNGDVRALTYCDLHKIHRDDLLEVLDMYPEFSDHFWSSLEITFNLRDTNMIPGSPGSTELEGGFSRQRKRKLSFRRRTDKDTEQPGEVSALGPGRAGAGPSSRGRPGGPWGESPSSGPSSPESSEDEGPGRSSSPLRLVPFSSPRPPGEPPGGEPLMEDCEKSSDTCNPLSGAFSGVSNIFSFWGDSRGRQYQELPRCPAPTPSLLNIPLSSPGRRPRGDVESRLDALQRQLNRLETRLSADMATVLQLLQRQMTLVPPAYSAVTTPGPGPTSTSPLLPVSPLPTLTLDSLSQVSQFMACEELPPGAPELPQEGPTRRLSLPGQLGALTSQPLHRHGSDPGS
row,SMILES,"hERG current change (%, negative = inhibition) at 10uM"
1,CSc1nnc2c(n1)OC(c1cn(C)c3ccccc13)N(C(C)=O)c1ccccc1-2 (centres unmarked),4.75%
2,C/C(=N\Nc1ccccc1)c1c(O)n(Cc2ccccc2)c(=O)[nH]c1=O,8.42%
3,O=C(CN1CCCC1=O)NC1C2CC3CC(C2)CC1C3 (centres unmarked),23.4%
4,CC(Cl)C(=O)NC(=O)NC12CC3CC(CC(C3)C1)C2 (centres unmarked),4.02%
5,CCOc1ccc(-c2cc(C(=O)N3CCC(C)CC3)c3ccccc3n2)cc1,-13.5%
6,O=C(Nc1ccc(NC(=O)c2ccc3c(c2)OCCO3)cc1)c1ccccc1,-0.166%
7,Cc1cc(C)cc(N(CC(=O)NC2CCC(C)CC2)S(=O)(=O)c2c(C)noc2C)c1 (centres unmarked),2.34%
8,Cc1cc(Cl)c2oc(C(=O)N(C)CC3CCOCC3)c(C)c2c1,-11.9%
9,Cc1ccc(COc2ccc(/C=N/NC(=O)CN3CCCCC3)cc2)cc1,4.43%
10,CCCCOC(=O)CCc1c(C)[nH]c(=S)[nH]c1=O,4.2%
11,CC(C)(C)OC(=O)NCCc1nnc(SCc2ccccc2)o1,-1.14%
12,Cc1cc(C(F)(F)F)n2nc(-c3cnn(C)c3C(F)(F)F)cc2n1,9.86%
13,Cc1ccc(-n2ccnc(SCC(=O)NC3CCCC3)c2=O)cc1F,-2.25%
14,CC(C(=O)N1CCN(Cc2ccc3c(c2)OCO3)CC1)n1cc([N+](=O)[O-])cn1 (centres unmarked),-22.3%
15,C[C@](N)(CCP(=O)(O)O)C(=O)O.Cl,-1.11%
16,Cc1ccc2nc(-c3cccnc3)cc(C(=O)Nc3ccccc3[N+](=O)[O-])c2c1,-0.168%
17,O=C(Cc1ccc(S(=O)(=O)N2CCOCC2)s1)Nc1cc(Cl)ccc1Cl,-12.6%
18,CC1=C(C(=O)NCCCOC(C)C)C2(CCC(C)CC2)OC1=O (centres unmarked),17.1%
19,COC(=O)c1ccc(S(=O)(=O)c2ccccc2)c(N)c1,9.98%
20,CCCc1nc(Cl)c(C#N)c2c1CCCC2,14.2%
21,CCOC(=O)c1[nH]c2ccc(Br)cc2c1NC(=O)CCN1CCC(C(=O)OCC)CC1,-73.9%
22,COCCNC(=O)C(=O)NCC1OCCN1S(=O)(=O)c1ccc2c(c1)OCCO2 (centres unmarked),11.8%

row,SMILES,"hERG current change (%, negative = inhibition) at 10uM"
1,COc1cc(C)ccc1OCCOCCOc1cccc2ccc(C)nc12.O=C(O)C(=O)O,-29.3%
2,COc1ccc(CNC(=O)C2CCCN(S(=O)(=O)c3ccc(-n4cnnn4)cc3)C2)cc1 (centres unmarked),-8.97%
3,CC1Cc2ccccc2N1C(=O)C1CCCN(S(=O)(=O)c2cccc3cccnc23)C1 (centres unmarked),-16.3%
4,CCN(CC)C(=O)Oc1nnc(SC(C)C)n1-c1ccc(Cl)cc1,-4.75%
5,CCC1CCCCN1CCCNC(=O)CC1Oc2ccc(C)cc2NC1=O (centres unmarked),-7.95%
6,C/C(=N\NC(=O)c1ccc([N+](=O)[O-])cc1)c1cc2ccccc2oc1=O,-17.4%
7,COc1ccc(/C(O)=C2\C(=O)C(=O)N(Cc3ccco3)C2c2ccc(OC)cc2OC)cc1 (centres unmarked),-6.69%
8,NC1=NC(=Nc2ccc(S(N)(=O)=O)cc2)c2ccccc21,-0.155%
9,Cn1c(-c2ccc(F)cc2)cnc1SCC(=O)Nc1ccccc1,13.9%
10,CCCC1CCC(=NNC(=S)NCCc2ccccc2)CC1 (centres unmarked),-1.08%
11,CC(=O)Nc1ccc(N=Cc2ccc(OCc3ccccc3)cc2)cc1,15.2%
12,O=C1CC(SCCO)C(=O)N1c1ccccc1 (centres unmarked),-3.04%
13,O=C(CSc1cccc2cccnc12)N/N=C/c1cccnc1,8.97%
14,COC(=O)C(Cc1ccc(O)cc1)NC(=O)CCc1nc2ccccc2s1 (centres unmarked),8.71%
15,COc1ccc(-n2ncc3c2CC(C)(C)CC3NC(=O)Cc2nonc2C)cc1 (centres unmarked),3.4%
16,COc1cc(-c2[nH]ncc2CN2CCN(c3cccc(C)n3)CC2)cc(OC)c1OC,-47.3%
17,CN1CCN(C(=O)Cc2nc3ccccc3[nH]2)CC1,-8.71%
18,CC(OC(=O)c1ccc(Cl)c(S(=O)(=O)Nc2ccc(F)cc2)c1)C(=O)NC(N)=O (centres unmarked),-0.582%
19,CC1(C(=O)N(CC(=O)NC2CCCC2)Cc2ccc(Cl)cc2)CC(=O)N=C2C=CC=CN21 (centres unmarked),-4.56%
20,CC1=CC(C)(C)N2C(=O)C3(C(C#N)=C(N)Oc4cc(C)oc(=O)c43)c3cc(C)cc1c32 (centres unmarked),-9.84%
21,COC(=O)C1=C(C)NC(=O)C1(NS(=O)(=O)c1ccc(C)cc1)C(F)(F)F (centres unmarked),11.2%
22,CCOc1ccc(N(CC(=O)NCc2ccccc2Cl)S(=O)(=O)c2c(C)noc2C)cc1,21.4%

row,SMILES,"hERG current change (%, negative = inhibition) at 10uM"
1,CN(CCCNC(=O)Cn1cc2c(n1)CCCC2)C1CCCCC1,-13.4%
2,O=C(CSc1ccccc1)Nc1nnc(/C=C/c2ccccc2)s1,-7.44%
3,Cc1[nH]c2ccccc2c1C(=O)COC(=O)C1CC(=O)N(Cc2ccco2)C1 (centres unmarked),-20.6%
4,Cn1c(SCc2ccc(F)cc2)nnc1-c1cnccn1,-0.9%
5,COc1cc2c(cc1OC)C(c1cc3cc4c(cc3[nH]c1=O)OCO4)N(C(=O)C1CC1)CC2 (centres unmarked),-10.9%
6,COC(=O)c1cccc(C23CC4(C2)[C@H](CN(Cc2ccc(C(F)(F)F)cc2)[C@@H]4c2ccccc2)C3c2ccc(Cl)nc2)c1 (some centres unmarked),4.8%
7,Cc1[nH]c(=S)sc1Cc1ccc(Cl)c(Cl)c1,18.5%
8,O=C(O)C(Cc1ccc(O)cc1)N1C(=O)c2c(Cl)c(Cl)c(Cl)c(Cl)c2C1=O (centres unmarked),-1.66%
9,CCOCCn1ccc2c(OCC(=O)Nc3ccccc3F)cccc2c1=O,-7.57%
10,Cc1ccc(C(NC(=O)c2ccccc2)C(Cl)(Cl)Cl)cc1 (centres unmarked),6.09%
11,CCCCCCCC(=O)N/N=C/c1ccncc1,-28.2%
12,O=C(ONC1=NCCCCC1)c1ccc(Cl)cc1,-2.28%
13,CSCCCNC(=S)N1CCN(c2ccc(C(C)=O)cc2)CC1,-37.6%
14,COC(=O)c1ccc(C2C(Oc3ccc(OC)cc3)C(=O)N2CCc2ccc(F)cc2)cc1 (centres unmarked),6.58%
15,CCOC(=O)c1sc(NC(=O)c2cc3c(s2)CCC(C)C3)nc1C (centres unmarked),13.8%
16,Fc1ccc(-c2csc3nnc(SCc4cccnc4)n23)cc1,-32.9%
17,O=C(c1ccc(-n2cccn2)cc1)N1CCc2ccccc2C1,-12.2%
18,COc1ccccc1CNC(=O)CN1C(=O)COc2ccc(S(=O)(=O)NC3CCCC3)cc21,12.1%
19,Fc1ccc(NC(=S)Nc2cccc3ccccc23)cc1,8.84%
20,COC(=O)c1cc(NC(=O)c2cccnc2)ccc1N1CCOCC1,13.9%
21,Cc1nc2ccccn2c1CN(C)C(=O)C1CCC(=O)N(CCc2cccc(F)c2)C1 (centres unmarked),-75.6%
22,Cc1cc(OCC(=O)N2CCN(c3ccccc3)CC2)c2c(C)cc(=O)oc2c1,16.1%

row,SMILES,"hERG current change (%, negative = inhibition) at 10uM"
1,COCCNC(=O)C1CC(=O)N(CCc2ccccc2)C1 (centres unmarked),21.2%
2,CO/N=C/c1ccc(N2CCN(C(=O)c3ccc(C)cc3)CC2)c([N+](=O)[O-])c1,-74.9%
3,Cn1c2ccccc2c2cc(/C=C(\NC(=O)c3ccccc3)C(=O)O)ccc21,9.22%
4,CC(=O)N1CCc2c(sc(NC(=O)CN3C(=O)c4ccccc4C3=O)c2C(N)=O)C1,5.3%
5,CC(=O)Nc1ccc(NC(=O)COc2ccc3c(c2)CCC3)cc1,24.5%
6,CCN(CC)C(=O)CSc1nc(O)cc(=O)n1C,8.81%
7,CC1(C)N=C2C(=[N+]1[O-])CCC/C2=N\O,11.6%
8,Cc1cccc2cc(CN(CCCN(C)C)C(=S)NCCc3ccccc3)c(=O)[nH]c12,-72%
9,N=C1/C(=C/c2ccc(-c3cccc(C(=O)O)c3)o2)C(=O)N=C2SC=C(c3ccccc3)N12,29.9%
10,Cc1nn(-c2ccccc2)c(C)c1/C=N/NC(=O)CSc1nnc(SCc2cccc3ccccc23)s1,6.33%
11,O=C(NCc1ccccc1F)c1cccc(S(=O)(=O)NCc2ccccc2)c1,-3.38%
12,O=C(NC1=NCCS1)c1ccccc1Cl,13.4%
13,CC(C)(C)c1ccc(OCC(=O)Nc2ccc(-c3nc4cccnc4o3)cc2)cc1,9.31%
14,Cc1cccc(NC(=O)CNC(=O)CCNC(=O)c2ccc(C(C)(C)C)cc2)c1C,-6.07%
15,O=C(NCC(c1ccco1)N1CCCC1)c1cc2cc(Cl)ccc2o1 (centres unmarked),-67.7%
16,Cc1ccc(S(=O)(=O)CCC(=O)NCc2ccc(Cl)cc2)cc1,-3.96%
17,CCCC(=O)Nc1cccc(C(=O)Nc2nccs2)c1,-15.4%
18,COc1ccc(/C=N/NC(=O)c2ccc3nc[nH]c3c2)c(OC)c1,25.5%
19,O=C(NCc1cccnc1)c1cc(S(=O)(=O)N2CCCCC2)ccc1Cl,16.7%
20,Cc1ccc(CNC(=O)Cc2nc3nc(C)cc(C)n3n2)cc1,1.08%
